The other results are listed elsewhere or left out.
How the values were obtained:
HSkMC = human skeletal muscle cells; experiment: cytotoxicity call (relative viability < 0.9); conditions: 10 µM
HepG2 = experiment: cytotoxicity call (relative viability < 0.9); conditions: 10 µM
S. aureus RN4220 = experiment: growth inhibition call (relative growth <= 0.2); conditions: 50 µM

Cc1noc(C)c1S(=O)(=O)Nc1ccc2c(c1)CC(=O)N([C@@H](C)CO)C[C@H](C)[C@H](CN(C)C(=O)Nc1ccccc1)O2
cytotoxicity call (HSkMC): inactive
cytotoxicity call (HepG2): inactive
growth inhibition call (S. aureus RN4220): inactive

COc1ccc(S(=O)(=O)Nc2ccc3c(c2)C(=O)N([C@H](C)CO)C[C@H](C)[C@H](CN(C)S(=O)(=O)c2ccc(Cl)cc2)OCCCC[C@H](C)O3)cc1
cytotoxicity call (HSkMC): inactive
cytotoxicity call (HepG2): inactive
growth inhibition call (S. aureus RN4220): inactive

C[C@H](CO)N1C[C@H](C)[C@H](CN(C)C(=O)Nc2ccc(F)cc2)OCCCC[C@H](C)Oc2ccc(NC(=O)C3CCCCCC3)cc2C1=O
cytotoxicity call (HSkMC): inactive
cytotoxicity call (HepG2): inactive
growth inhibition call (S. aureus RN4220): inactive

C[C@H]1CCCCO[C@H](CN(C)C(=O)NC2CCCCC2)[C@@H](C)CN([C@@H](C)CO)C(=O)c2cc(NC(=O)Nc3ccc(F)cc3)ccc2O1
cytotoxicity call (HSkMC): inactive
cytotoxicity call (HepG2): inactive
growth inhibition call (S. aureus RN4220): inactive

CCCNC(=O)Nc1ccc2c(c1)C(=O)N(C)C[C@H](OC)[C@H](C)CN(C(=O)C1CCOCC1)[C@@H](C)CO2
cytotoxicity call (HSkMC): inactive
cytotoxicity call (HepG2): inactive
growth inhibition call (S. aureus RN4220): inactive

C[C@H]1CN([C@@H](C)CO)C(=O)c2cccc(NS(=O)(=O)c3cn(C)cn3)c2O[C@@H]1CN(C)C(=O)Nc1ccc(F)cc1
cytotoxicity call (HSkMC): inactive
cytotoxicity call (HepG2): inactive
growth inhibition call (S. aureus RN4220): inactive

COc1ccc(S(=O)(=O)N(C)C[C@@H]2OCCCC[C@@H](C)Oc3ccc(NS(=O)(=O)c4cn(C)cn4)cc3C(=O)N([C@H](C)CO)C[C@@H]2C)cc1
cytotoxicity call (HSkMC): inactive
cytotoxicity call (HepG2): inactive
growth inhibition call (S. aureus RN4220): inactive

C[C@H](CO)N1C[C@H](C)[C@H](CN(C)Cc2ccc(C(=O)O)cc2)Oc2ccc(NC(=O)c3ccncc3)cc2C1=O
cytotoxicity call (HSkMC): inactive
cytotoxicity call (HepG2): inactive
growth inhibition call (S. aureus RN4220): inactive

C[C@H]1CN([C@@H](C)CO)C(=O)c2cc(NS(=O)(=O)c3cccs3)ccc2O[C@H]1CN(C)S(C)(=O)=O
cytotoxicity call (HSkMC): inactive
cytotoxicity call (HepG2): inactive
growth inhibition call (S. aureus RN4220): inactive

C[C@@H]1CCCCO[C@@H](CN(C)C(=O)NC2CCCCC2)[C@H](C)CN([C@H](C)CO)C(=O)c2cc(NC(=O)Cc3ccccc3)ccc2O1
cytotoxicity call (HSkMC): inactive
cytotoxicity call (HepG2): inactive
growth inhibition call (S. aureus RN4220): inactive

C=CCN1[C@H](Cc2ccccc2)[C@@H](c2cn(CCCCNC(=O)C(=O)NC)nn2)Oc2ccccc2S1(=O)=O
cytotoxicity call (HSkMC): inactive
cytotoxicity call (HepG2): inactive
growth inhibition call (S. aureus RN4220): inactive

Cc1ccc(S(=O)(=O)N(C)C[C@H]2Oc3ncc(C#CC4(O)CCCC4)cc3C(=O)N([C@H](C)CO)C[C@H]2C)cc1
cytotoxicity call (HSkMC): inactive
cytotoxicity call (HepG2): inactive
growth inhibition call (S. aureus RN4220): inactive

C=CC[C@@H](CC(=O)N(CCO)Cc1ccccc1)C(=O)NC[C@H](OC(=O)[C@@H](CC=C)Cc1ccc(F)cc1)c1ccccc1
cytotoxicity call (HSkMC): active
cytotoxicity call (HepG2): inactive
growth inhibition call (S. aureus RN4220): inactive

COc1ccc(CN(C)C[C@@H]2OCCCC[C@H](C)Oc3ccc(NC(=O)Nc4ccc(OC)cc4)cc3C(=O)N([C@@H](C)CO)C[C@H]2C)cc1
cytotoxicity call (HSkMC): inactive
cytotoxicity call (HepG2): active
growth inhibition call (S. aureus RN4220): inactive

CCn1c(CN2CCN(C(=O)c3ccco3)CC2)nc2c1c(=O)n(C)c(=O)n2C
cytotoxicity call (HSkMC): inactive
cytotoxicity call (HepG2): inactive
growth inhibition call (S. aureus RN4220): inactive

COc1ccc(NC(=O)N(C)C[C@H]2Oc3c(NC(=O)Nc4cccc5ccccc45)cccc3C(=O)N([C@H](C)CO)C[C@H]2C)cc1
cytotoxicity call (HSkMC): inactive
cytotoxicity call (HepG2): inactive
growth inhibition call (S. aureus RN4220): inactive

COc1ccc([Si](C)(C)[C@H]2[C@H](CC(=O)N3Cc4ccccc4C[C@H]3CO)O[C@@]3(C(=O)N(Cc4ccc(N5CCC5=O)cc4)c4ccccc43)[C@@H]2C)cc1
cytotoxicity call (HSkMC): inactive
cytotoxicity call (HepG2): inactive
growth inhibition call (S. aureus RN4220): inactive

COCCN1C[C@@H]2CN(C(=O)[C@H]3CCCO3)C[C@H]2C1=O
cytotoxicity call (HSkMC): inactive
cytotoxicity call (HepG2): inactive
growth inhibition call (S. aureus RN4220): inactive

C[C@@H]1CN([C@@H](C)CO)C(=O)c2cc(NS(=O)(=O)c3cn(C)cn3)ccc2O[C@@H](C)CCCCO[C@H]1CN(C)C(=O)c1ccncc1
cytotoxicity call (HSkMC): inactive
cytotoxicity call (HepG2): inactive
growth inhibition call (S. aureus RN4220): inactive

Cc1cc(-c2ccc(NN=C3C=Cc4c(S(=O)(=O)O)cc(S(=O)(=O)O)c(N)c4C3=O)c(C)c2)ccc1NN=C1C=Cc2c(S(=O)(=O)O)cc(S(=O)(=O)O)c(N)c2C1=O
cytotoxicity call (HSkMC): inactive
cytotoxicity call (HepG2): active
growth inhibition call (S. aureus RN4220): inactive

COc1ccc(S(=O)(=O)Nc2cccc3c2O[C@H](CN(C)S(=O)(=O)c2ccc(C)cc2)[C@H](C)CN([C@H](C)CO)C3=O)cc1
cytotoxicity call (HSkMC): inactive
cytotoxicity call (HepG2): inactive
growth inhibition call (S. aureus RN4220): inactive

C[C@H]1CCCCO[C@@H](CN(C)Cc2ccc3c(c2)OCO3)[C@@H](C)CN([C@@H](C)CO)C(=O)c2cc(NC(=O)CCC(F)(F)F)ccc2O1
cytotoxicity call (HSkMC): inactive
cytotoxicity call (HepG2): inactive
growth inhibition call (S. aureus RN4220): inactive

OCCCC1=C[C@H](c2ccc(CN3CCCC3)cc2)N(Cc2cc3c(cc2Br)OCO3)CC1
cytotoxicity call (HSkMC): inactive
cytotoxicity call (HepG2): inactive
growth inhibition call (S. aureus RN4220): inactive
